In PubChem BioAssay (NCI) one finds GI50 and TGI data, which are given here for one compound.

This test deals with NCI-H322M lung. Nature of the test: NCI-60 cell line screen, 48 h.

Structures are written as SMILES.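 Five concentrations, 48 hours, 96-well plates. At the GI50, growth is halved. Definition used: TGI = concentration required for complete inhibition of growth.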

Turning to `CN(C)c1nc(NCCNS(=O)(=O)c2ccc(C(=O)/C=C/c3ccc(C(F)(F)F)cc3)cc2)nc(Nc2ccc(F)cc2)n1`, the GI50 is 11.6 µM and the TGI was found to be 24.3 µM.
